Test results published in PubChem BioAssay AID624417 (National Center for Advancing Translational Sciences (NCATS), 2012).
Where “and” joins values, the source holds several entries; their conditions need not be identical. Equal entries are not always repeated. Among all 410,000 compounds or so, about 6,400 (1.6%) were called active. This list was built around the results that the source calls inconclusive (neither active nor inactive); the mix of calls is not that of the screen. Calls follow the shape of the dose curve; as a rule, active = well fitted inhibition curve with a large enough effect; inconclusive = small, poorly fitted or top-dose-only effect; inactive = no such curve, though single readings can be large or run the other way. Potencies of inconclusive entries are doubtful fits and often do not repeat.

Each compound was assayed against Glucagon-like peptide 1 receptor (Homo sapiens) (UniProt P43220) (assay: qHTS of GLP-1 Receptor Inverse Agonists (Inhibition Mode)). Details: HEK293 GLP-1R CRE-luciferase, luminescence, 24 h, GLP-1R form is constitutively active; activity change, negative = inhibition: at 38.3 µM (top of the series) unless noted.
In short: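 Assay principle: reduced luminescence from a cAMP-responsive reporter in HEK293 cells co-expressing a constitutively active GLP-1R. Conditions: 24 hr compound incubation, 37 deg C, 5% CO2.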
% is scaled to controls: 0 for no effect and ±100 for the full control effect; potency is read from the fitted curve at half-maximal effect; tags tell the direction and shape of the fitted curve.
Also: nearly all actives have a fitted effect of over 55% in size.

UniProt P43220, sequence (P43220 whole entry, looked up): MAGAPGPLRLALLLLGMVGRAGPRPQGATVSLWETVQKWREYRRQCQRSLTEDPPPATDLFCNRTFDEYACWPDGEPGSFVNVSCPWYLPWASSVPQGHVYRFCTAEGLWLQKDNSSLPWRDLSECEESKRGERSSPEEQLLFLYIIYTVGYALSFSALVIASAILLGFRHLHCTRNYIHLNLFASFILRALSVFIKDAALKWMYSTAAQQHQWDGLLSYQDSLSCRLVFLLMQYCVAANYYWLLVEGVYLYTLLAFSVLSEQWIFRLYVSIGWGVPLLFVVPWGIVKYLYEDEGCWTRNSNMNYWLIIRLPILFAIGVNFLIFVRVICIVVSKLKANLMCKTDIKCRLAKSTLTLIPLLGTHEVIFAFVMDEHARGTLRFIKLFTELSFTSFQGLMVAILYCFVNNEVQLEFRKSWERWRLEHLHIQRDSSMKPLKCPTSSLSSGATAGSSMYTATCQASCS

SMILES | Potency | activity change, negative = inhibition
CCOCc1ccccc1Nc1ncnc2onc(-c3ccc(Cl)cc3)c12 | inactive | 
Cc1ccc2cc(CN(CC3CCCO3)S(=O)(=O)c3ccccc3)c3nnnn3c2c1 (centres undefined) | inactive | 
NC(c1ccccc1)c1csc(NC(=O)Nc2cccc(Cl)c2)n1 (centres undefined) | inconclusive: 12.6 µM [inhibitor, single point] | 
COc1cccc(NC(=O)Cn2c(=O)n(-c3ccc(C)cc3)c(=O)c3ccc(C(=O)NCc4ccco4)cc32)c1 | inconclusive: 28.2 µM [inhibitor, single point] | 
CC(=O)N1/C(=C/c2ccc(N(C)C)cc2)C(=O)c2ccccc21 | active: 10 µM | 
CCN(CC)c1ccc(NC(=O)c2cccc(C)c2OC)c(C)c1 | inconclusive: 10 µM [inhibitor, single point] | 
Cc1c(C(=O)Nc2cccc(Cl)c2)oc2ccc(S(=O)(=O)N(C)C3CCCCC3)cc12 | inconclusive: 2 µM [inhibitor, partial curve, poor fit] | 
COc1ccc(CC(N)c2csc(NC(=O)c3cccc(OC(F)(F)F)c3)n2)cc1 (centres undefined) | inconclusive: 28.2 µM [inhibitor, single point] | 
CCOc1ccccc1N(CC(=O)N1CCc2ccccc2C1)S(=O)(=O)c1ccccc1 | inconclusive: 14.1 µM [inhibitor, single point] | 
O=C(CCl)N1N=C(c2ccco2)CC1c1ccco1 (centres undefined) | active: 2.24 µM | 
O=S(=O)(Nc1cccc(-c2ccc(N3CCCCCC3)nn2)c1)c1cccc(F)c1 | inconclusive: 11.2 µM [inhibitor, single point] and inconclusive: 12.6 µM [inhibitor, partial curve, poor fit] | 
CCc1nc(NCc2ccc3c(c2)OCO3)c2oc3ccccc3c2n1 | inactive | 
O=C1c2ccccc2C(Nc2cccc(C(F)(F)F)c2)N1Cc1ccco1 (centres undefined) | inconclusive: 22.4 µM [inhibitor, single point] | 
CCOc1cccc(C2C(C(=O)c3ccc(C)o3)=C(O)C(=O)N2c2nnc(C)s2)c1 (centres undefined) | inactive | 
CC1CCN(c2ccc(-c3ccc(NC(=O)c4ccco4)cc3)nn2)CC1 | inconclusive: 8.91 µM [inhibitor, partial curve, poor fit] | 
CC(=O)Nc1cc(-c2ccc(Cl)cc2)nn1-c1ccccc1 | inconclusive: 12.6 µM [inhibitor, single point] | 
COc1ccc(N2C3=C(C(=O)CC(C)(C)C3)C(c3ccccc3OC)C3=C2CC(C)(C)CC3=O)cc1 | inconclusive: 15.8 µM [inhibitor, partial curve, poor fit] | 
Cc1ccc(Cc2c(-c3cccc(Br)c3)nc3ccc(Cl)cn23)cc1 | inconclusive: 5.62 µM [inhibitor, full curve, poor fit] | 
CCCCOC(=O)CSC1=C(C#N)C(c2cccnc2)C(C(=O)OCC)=C(c2ccccc2)N1 (centres undefined) | inconclusive: 5.01 µM [inhibitor, full curve, poor fit] | 
O=C1CCSC2(C(=O)N(Cc3ccc(F)cc3)c3ccccc32)N1c1ccc(F)c(F)c1 (centres undefined) | inconclusive: 11.2 µM [inhibitor, partial curve, poor fit] | 
CCc1ccc(-c2nc(CS(=O)CC(=O)NCCc3ccc(Cl)cc3)c(C)o2)cc1 (centres undefined) | inconclusive: 28.2 µM [inhibitor, single point] | 
COc1cccc(CCNC(=O)c2cc(COc3c(F)cccc3F)on2)c1 | inconclusive: 12.6 µM [inhibitor, partial curve, poor fit] | 

SMILES | Potency | activity change, negative = inhibition
CCNC(=O)CC1C(=O)N(c2cccc(OC)c2)C(=O)N1Cc1ccc(OC)c(OC)c1 (centres undefined) | inactive | 
O=C(Nc1ccccc1)OCc1cc(-c2ccccc2Cl)on1 | inconclusive: 28.2 µM [inhibitor, single point] | 
O=C(Nc1ccc(N2CCCCCC2)cc1)c1ccc[nH]1 | inconclusive: 12.6 µM [inhibitor, single point] | 
C/C(=N/Nc1ccc([N+](=O)[O-])cc1)c1ccc(C)cc1C | inactive | 
CC(=O)N1c2ccc(S(=O)(=O)N3CCCC(C(=O)Nc4cccc(Cl)c4)C3)cc2CC1C (centres undefined) | inconclusive: 8.91 µM [inhibitor, partial curve, poor fit] | 
CC(=O)N1CCc2cc(S(=O)(=O)CCC(=O)NCc3ccc(Cl)cc3)ccc21 | inconclusive: 22.4 µM [inhibitor, single point] | 
O=C(Cn1ncc2c3ccccc3n(Cc3cccc(Cl)c3)c2c1=O)NC1CCCCCC1 | inconclusive: 28.2 µM [inhibitor, single point] | 
S=C(NCc1ccc(Cl)c(Cl)c1)NCc1ccco1 | inconclusive: 10 µM [inhibitor, partial curve, poor fit] | 
CCCc1cc(C(=O)Nc2nccs2)cs1 | inactive | 
CCCCCc1ccc(-c2cn(Cc3ccc(C)cc3)nn2)cc1 | inactive | 
CCOC(=O)C1(CCc2ccccc2)CCN(Cc2ccccn2)CC1 | inconclusive: 12.6 µM [inhibitor, partial curve, poor fit] | 
CCCSc1nc(O)c(C2OC(=O)c3c2ccc(OC)c3OC)c(=O)n1-c1ccccc1 (centres undefined) | inconclusive: 10 µM [inhibitor, partial curve, poor fit] | 
COc1ccccc1N(Cc1ccccc1)S(=O)(=O)c1cc(C(=O)O)ccc1Cl | inconclusive: 28.2 µM [inhibitor, single point] | 
CCCC(c1nnnn1Cc1ccc(F)cc1)N1CCN(C2CCCCC2)CC1 (centres undefined) | inconclusive: 1 µM [inhibitor, full curve, poor fit] | 
CCOC(=O)N/N=C(/c1ccccc1)C1CCCCC1 | inconclusive: 8.91 µM [inhibitor, partial curve, poor fit] | 
OC(COc1ccc(Br)cc1)CN1CCCC1 (centres undefined) | inactive | 
Cc1ccccc1OCC(=O)N1CCCc2ccccc21 | inconclusive: 28.2 µM [inhibitor, single point] | 
COc1ccc(/C=C/C(=O)Nc2ccccc2C(=O)O)cc1 | inconclusive: 5.62 µM [inhibitor, full curve, poor fit] | 
CCOc1ccccc1NC(=O)CCn1nc(C)c(S(=O)(=O)N2CCCCC2)c1C | inconclusive: 5.01 µM [inhibitor, full curve] | 
Cc1cc(NC(=O)COC(=O)c2cc([N+](=O)[O-])ccc2N2CCOCC2)ccc1Br | inconclusive: 8.91 µM [inhibitor, partial curve, poor fit] | 
O=S(=O)(NCC(c1cccnc1)N1CCN(c2ccccc2)CC1)c1cccs1 (centres undefined) | inconclusive: 10 µM [inhibitor, single point] | 
O=C(NCCCc1ccccc1)C1CCN(C(=O)N2CCOc3ccc(Cl)cc32)CC1 | inconclusive: 22.4 µM [inhibitor, single point] | 

SMILES | Potency | activity change, negative = inhibition
O=C(Nc1c(-c2ccccc2)nc2c(Br)cc(Br)cn12)c1ccco1 | inconclusive: 3.16 µM [inhibitor, full curve] | 
O=C(CCS(=O)(=O)c1ccc(Br)cc1)N1CCCCCC1 | inconclusive: 8.91 µM [inhibitor, partial curve, poor fit] | 
COc1ccc(CNC(=O)c2ccc(NC(=O)N3CCCCc4ccccc43)cc2)cc1 | inconclusive: 2.24 µM [inhibitor, full curve, poor fit] | 
COc1nc(SCC(=O)Nc2ccccc2Cl)nc(N(C)C)n1 | inconclusive: 28.2 µM [inhibitor, single point] | 
CCc1nc2c(OCc3cc(Cl)cc(Cl)c3)cccn2c1N(C)C(=O)c1ccccc1F | inconclusive: 11.2 µM [inhibitor, single point] | 
CC(C)c1nc2sc3c(=O)n(N)cnc3c2c2c1COC(C)(C)C2 | inactive | 
COc1ccc(C2CC(c3ccccc3)=NN2S(=O)(=O)c2ccc(C)cc2)c(OC)c1 (centres undefined) | inconclusive: 1.26 µM [inhibitor, full curve, poor fit] | 
CCN(CC)S(=O)(=O)c1ccc2oc(C(=O)N(C)Cc3ccccc3)c(C)c2c1 | inactive | 
COc1ccc(Cn2c(=O)c3oc4ccccc4c3n(Cc3ccc(F)cc3)c2=O)cc1 | inactive | 
CC(C)(C)c1cc(CCC(=O)N2CCC2)cc(C(C)(C)C)c1O | inconclusive: 0.501 µM [inhibitor, full curve, poor fit] | 
COCCCNC(=O)c1oc2ccc(S(=O)(=O)N(C)C3CCCCC3)cc2c1C | inconclusive: 15.8 µM [inhibitor, single point] | 
CC(=O)n1cc(/C=N/NC(=O)c2ccccc2O)c2ccccc21 | inactive | 
Cc1ccccc1C(=O)NC(=S)Nc1ccc(S(=O)(=O)N(C)c2ccccc2)cc1 | active: 8.91 µM | 
CCOc1ccc(CN2CCN(Cc3c[nH]c4ccccc34)CC2)cc1 |  | inconclusive: -68.6% [inhibitor]
COc1cc2c(cc1NC(=O)C1CCCO1)oc1ccccc12 (centres undefined) | inconclusive: 28.2 µM [inhibitor, single point] | 
COc1ccc(N2CCN(C(=O)CCSCc3ccccc3F)CC2)cc1 | inconclusive: 3.16 µM [inhibitor, full curve] | 
O=C(CSCC(=O)N1CCCCC1)Nc1nc(-c2ccc(Cl)s2)cs1 | inconclusive: 28.2 µM [inhibitor, single point] | 
CCN(CC)c1nc(N)c2c(N)n(-c3ccccc3C)c(=S)c(C#N)c2c1C#N | inconclusive: 28.2 µM [inhibitor, single point] | 
COc1ccc(C(=O)NC2CC2)cc1OC1CCN(Cc2ccc(Cl)cc2)CC1 | inconclusive: 12.6 µM [inhibitor, single point] | 
CC1CCN(C(=S)NC(=O)c2ccco2)CC1 | inconclusive: 10 µM [inhibitor, partial curve] | 
